This is an account of results in patent US9345663B2 (priority 2000, dated 2016).

In brackets after ≈: the same amount, converted by molar mass. Where two headings read alike, the source gives them in different places.

Broadly, the MIC is the smallest concentration in the dilution series that meets the test's criterion for growth inhibition. A low value points to a more susceptible organism. Usually MIC50 stands for an inhibitory concentration at the 50% level, which refers to growth in some studies and to a panel of isolates in others. Higher therefore signals lower susceptibility.

Series [1] in a line: Shelf life and stability of dry and liquid forms. The series is classed as physicochemical. The following applies: dry form.
For a further series, the system named is Burkholderia cepacia. The following applies: cited from earlier work.
The subject of series [2] is Pseudomonas aeruginosa. Description: Susceptibility of tobramycin resistant isolates from Phase II tobramycin trials. The following applies: isolates with a tobramycin MIC>16 μg/ml.
Series [3] has as its system Pseudomonas aeruginosa. The following applies: patients screened from 69 CF centers; cited from earlier work.
Series [4] concerns P. aeruginosa strain PA27853. Description: Killing curves with or without hog gastric mucin or CF sputum.
Series [5] can be described thus: Viscosity of aztreonam solutions. The series is classed as physicochemical.
Series [6] has as its system P. aeruginosa strain PA27853. The series can be described thus: MIC for strain PA27853 by standard methods. The series is classed as cell-based. The following applies: Pseudomonas aeruginosa.
Another series is described as follows: Solubility. The series is classed as physicochemical.
Series [7] can be described thus: Beagle dog 28 day inhalation safety study. The series is classed as in vivo.
The conditions of series [8]: intravenous, 2,000 mg (2 g), six hours after administration; cited from earlier work.
The next series has as its system S. aureus. Description: MIC by broth microdilution, negative control organism. The following applies: Staphylococcus aureus. For orientation: In broth dilution the organism is exposed to a series of concentrations in liquid medium.
The nature of series [9]: Accelerated stability method, open chain formation. The series is classed as physicochemical.
For series [10] the following is noted: cited from earlier work.

Regarding `C[C@H]1[C@H](NC(=O)/C(=N\OC(C)(C)C(=O)O)c2csc(N)n2)C(=O)N1S(=O)(=O)O.NCCCC[C@H](N)C(=O)O` [aztreonam lysinate], the shelf life result in [1] was “at least 2 years”. Also, the “isolates sensitive to parenteral treatment” value with Burkholderia cepacia is on record as 5%. This compound also gave an isolates susceptible in the series with Pseudomonas aeruginosa [2] of around 75%.

Take `NC[C@H]1O[C@H](O[C@H]2[C@H](O)[C@@H](O[C@H]3O[C@H](CO)[C@@H](O)[C@H](N)[C@H]3O)[C@H](N)C[C@@H]2N)[C@H](N)C[C@@H]1O` [tobramycin]: the “patients with resistant isolates (MIC>16 μg/mL)” value in the series on Pseudomonas aeruginosa [3] is recorded as 21%. For the same compound, in series [4] (10% mucin added), the “inhibition of antibiotic activity by hog gastric mucin” value is listed as “inhibit the activity”.

As for `C[C@H]1[C@H](NC(=O)/C(=N\OC(C)(C)C(=O)O)c2csc(N)n2)C(=O)N1S(=O)(=O)O` [aztreonam, (Z)-2-[[[(2-amino-4-thiazolyl)[[(2S,3S)-2-methyl-4-oxo-1-sulfo-3-azetidinyl]carbamoyl]methylene]amino]oxy]-2-methylpropionic acid], the Viscosity of aztreonam worked out at 1.48 ± 0.1 mPas in [5] (75 mg/mL) and 1.7 ± 0.03 mPas in series [5] (90 mg/mL). This compound came in with an MIC in series [6] of 4 µg/mL (≈ 9.19 µM). Also, in the series “Solubility”, the “maximum concentration that can be dissolved in 1 mL of the solution” value is recorded as 90 mg/mL. In series [7], the “necropsy or histological findings” value was “no necropsy or histological findings”. The “level at 6 hours” value in [8] was around 16000 ng/mL. The compound further registered an MIC50 against S. aureus of 1020 µg/mL (≈ 2350 µM). Besides, the “killing of P. aeruginosa” value in series [4] (at or above the MIC) was “effective killing”. Besides, the “growth of P. aeruginosa” value in series [4] (quantities less than the MIC) was “Growth of P. aeruginosa occurred”.

In the case of `C[C@H]1[C@H](NC(=O)/C(=N\OC(C)(C)C(=O)O)c2csc(N)n2)C(=O)N1S(=O)(=O)O` [alpha form], the open chain came out at 1.2% in [9] (after 90 days) and 0.06% in [9] (initial). The “loss after one week of storage” value in [10] (80° C.) is given as 80%; in series [10] (room temperature) it was “approximately 1%”.

Turning to `C[C@H]1[C@H](NC(=O)/C(=N\OC(C)(C)C(=O)O)c2csc(N)n2)C(=O)N1S(=O)(=O)O` [beta form], the solubility in water result in the series “Solubility” was “relatively insoluble”. Also, the open chain entry in series [9] (at 30 days) is reported as “over 2%”; in series [9] (initial) it was 0.9%. Further, the “increase in impurity level by TLC method” value in series [10] (12 month storage, 5% to 75% relative humidity, −20° C. to 40° C.) is recorded as below 2%.
